± gives the standard deviation of the averaged measurements. The list shows a part of the results.
Tested on: PfAP2-G AP2 domain (GST-tagged)
Test: gcPBM binding intensity (ln(normalized median fluorescence intensity)); higher = stronger DNA binding
Method in brief: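 Probes on an Agilent 4 × 180k array were primer-extended, double-stranded and 36 bp long, taken from intergenic genomic regions, with negative controls added. GST-tagged P. falciparum DNA-binding domains from E. coli, about 25 μg on average, were applied to the array for 1 h in 1× PBS containing 1% milk, 0.2 mg/ml BSA, 0.5% salmon testes DNA and 0.03% Triton X-100. Binding intensity, obtained after Alexa488 anti-GST antibody detection and a 488 nm scan, is the highest Masliner-normalised natural-log median intensity across replicate spots of either probe orientation.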

Sequence | gcPBM binding intensity (ln)
AATCAAAACATTAAAAAGAAAAAATATATATATATA [CACACA_negctrl_site366] | 9.99 ± 0.9
ACAAAAAAAAAAAAAATACACACACATAAAAAAAAA [TGCATGCA_negctrl_site333] | 10.1 ± 0.13
ACAAAATATTTTTCTTCACACATCCATTCAACATTT [CACACA_site5886] | 10.17 ± 0.099
TAAATAAATAAATATATATATATATATATATATATA [XGTACX_negctrl_site70] | 10.2 ± 1.2
TTGATGATATCATTTTGTACTTATACGTATTTAAAA [XGTACX_site148] | 11.2 ± 0.86
CCATTCAAATTTCGCACACACATACAAAAAAAAAAA [CACACA_site3093] | 10.4 ± 0.54
TATAAATGATTAATTTGTACATATTTTACTTAATTG [XGTACX_site5271] | 10.9 ± 0.63
GTGTTCATATATAGCCGTACATATGTCTTATGAACG [XGTACX_site5647] | 11 ± 0.57
ATTATCAAAAAAAAAAAAAAAAAAAAAAAAAAAAAA [CACACA_negctrl_site1118] | 9.61 ± 0.44
AATCAAAATATATCTACACACATTTAAGTAACCCAT [CACACA_site5846] | 10.3 ± 0.21
TATAACATTATTTTGTGTACACATTCGGTTATATTA [XGTACX_site6310] | 12 ± 1.1
GTCTCCTTTATTTTTGGTACAGATAAGATAAAAGGA [XGTACX_site1591] | 11 ± 0.7
TTGTTTCCGATGAAAGAAAGGAAATTATAATATATC [GTGCAC_negctrl_site516] | 10.03 ± 0.057
ATATAGATCTATAATACACACTTATGAAATGTCTAA [CACACA_site6946] | 9.935 ± 0.049
TAAAATAATATTTATGTGCACATATAATTATTAATT | 10.4 ± 0.31
TGTGTAGCTAGGGGGTTGCTAATTTTTGTTTTGACC [CACACA_negctrl_site634] | 10.9 ± 0.57
TTATATATACCATAATGTACTCTATTATATAAAAAA [XGTACX_site7464] | 11.1 ± 0.8
TTTGTGCTTATCCTAACACACACAACATATAAGAAA [CACACA_site9091] | 10.3 ± 0.37
ATATATATTTTTATAACACACAATGATGTACATTAC [CACACA_site1076] | 11.3 ± 0.84
ATTCAATAAACGTATTGTACAAAAGAACGATATATT [XGTACX_site2533] | 10.7 ± 0.35
TATTGGATCACACAAAAATGTATAAATAAATAGAAA [TGCATGCA_negctrl_site490] | 10.07 ± 0.099
AAGACAAATTGTGACACACACAAAAAAAAAAAAAAA [CACACA_site3727] | 10.2 ± 0.48

Sequence | gcPBM binding intensity (ln)
AAAAAAATAAGGTGCACACAAAAAAAAAAAAAAAAA [CACACA_site812] | 10.6 ± 0.82
TTATGTTGCGAGTTCTTAAGATATAAAAAATTCTTC [GTGCAC_negctrl_site45] | 9.85 ± 0.057
ATCATAACTTGATACGCACACGTTATATAAATAAAA [CACACA_site4955] | 10.5 ± 0.4
TGAGAATAAAAAAAAGGGATTATTAGATTTCTCCTT [TGCATGCA_negctrl_site326] | 9.45 ± 0.23
AATGTAAATAAGTGTACACATATATAATACATACAT [CACACA_site4938] | 11.6 ± 0.91
GATTCATTTCGTAATACACACAACAAATATTTCAAA [CACACA_site1772] | 10.1 ± 0.16
TACCTTATATTATATACACACATATAATATAATATA [CACACA_site1328] | 9.97 ± 0.11
AATTAAAGGAATTACAACTTTGCAAGCGCAACATAA [CACACA_negctrl_site1411] | 9.835 ± 0.021
TTCTTTATATATGTTCGTACATATTATTATAATACA [XGTACX_site1549] | 11.2 ± 0.63
TATTAAAAAATTATATGTACACATTTGTTATATACA [XGTACX_site2232] | 11.6 ± 0.85
ATAAAAAAATAAATAACACACAAAATTACACGAAAA [CACACA_site3620] | 10.01 ± 0.049
TATGTCCATATTTCCACACACATATTATTTTTATAT [CACACA_site3798] | 11 ± 0.67
GTACACATATATATATATATATATATATATATATAT [CACACA_negctrl_site800] | 10.6 ± 0.44
TTTTTTTTTTTTTTTTGTACTCATACATACTATTAT [XGTACX_site989] | 11.3 ± 1.1
AGTAATTATTTTAGAGTGCATAGTTTTTTAATAAAT | 10.1 ± 0.11
AAATATATTTTTAATAGTACAATATGAAAATTTCAT [XGTACX_site2562] | 11 ± 0.63
AAAAAAAAGGAAATAACACACATGTATATATTTATA [CACACA_site1606] | 9.89 ± 0.071
CACCATGTTAACAATACATGCATCACTATATAAATG [TGCATGCA_site36] | 10.2 ± 0.12
TGCCTTATTAAAAGAATTACACATATTTAATCGAAA [GTGCAC_negctrl_site153] | 9.79 ± 0.14
ATTCATAACAAAAAAAGTACTCAAAATAATAATAAA [XGTACX_site6079] | 11.6 ± 0.83
TAATTTTCATGTTCATGTACTTAAATATAAGGTAAA [XGTACX_site3284] | 11.3 ± 0.71
TTTTATTAATATTGCATGCACACTATATAATAATTG [CACACA_site1049] | 10.07 ± 0.085
